Each structure is given as a SMILES string. In all, about 310,000 compounds went through this assay and about 2,200 (0.71%) showed an effect of 50% or more. The effect is printed as a negative number. The list shows a part of the results.

Chain of human ether-à-go-go-related gene (hERG) potassium channel (Q12809 whole entry, looked up): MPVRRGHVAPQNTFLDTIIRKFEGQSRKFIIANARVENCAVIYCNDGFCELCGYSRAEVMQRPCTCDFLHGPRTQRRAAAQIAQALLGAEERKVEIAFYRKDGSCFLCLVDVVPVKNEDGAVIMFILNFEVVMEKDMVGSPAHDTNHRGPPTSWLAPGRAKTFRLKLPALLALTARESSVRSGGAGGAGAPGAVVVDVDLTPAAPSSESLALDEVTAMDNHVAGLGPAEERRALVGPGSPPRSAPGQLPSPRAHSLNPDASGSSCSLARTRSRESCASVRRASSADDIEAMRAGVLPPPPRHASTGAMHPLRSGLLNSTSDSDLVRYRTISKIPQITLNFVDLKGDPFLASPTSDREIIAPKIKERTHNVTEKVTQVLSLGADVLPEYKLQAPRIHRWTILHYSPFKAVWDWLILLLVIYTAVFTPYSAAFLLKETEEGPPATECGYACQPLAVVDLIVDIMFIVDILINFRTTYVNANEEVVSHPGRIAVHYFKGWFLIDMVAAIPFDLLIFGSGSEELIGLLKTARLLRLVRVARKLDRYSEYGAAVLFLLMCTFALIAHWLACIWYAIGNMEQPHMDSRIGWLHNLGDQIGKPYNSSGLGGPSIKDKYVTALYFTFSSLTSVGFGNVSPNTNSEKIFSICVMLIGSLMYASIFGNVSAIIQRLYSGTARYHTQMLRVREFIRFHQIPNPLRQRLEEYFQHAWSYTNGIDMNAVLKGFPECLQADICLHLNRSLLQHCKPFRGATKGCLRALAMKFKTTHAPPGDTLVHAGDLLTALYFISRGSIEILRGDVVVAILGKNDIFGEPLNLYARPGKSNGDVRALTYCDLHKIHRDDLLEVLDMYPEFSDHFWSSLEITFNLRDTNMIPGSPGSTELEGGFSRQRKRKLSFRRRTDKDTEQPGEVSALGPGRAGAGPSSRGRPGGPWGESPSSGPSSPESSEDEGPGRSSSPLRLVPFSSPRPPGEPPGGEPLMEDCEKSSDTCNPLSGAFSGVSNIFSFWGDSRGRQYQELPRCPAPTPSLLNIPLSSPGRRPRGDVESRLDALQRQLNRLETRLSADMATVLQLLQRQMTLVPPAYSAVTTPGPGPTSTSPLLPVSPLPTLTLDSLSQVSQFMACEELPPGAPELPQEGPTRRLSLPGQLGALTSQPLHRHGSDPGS

The assay concerns the target human ether-à-go-go-related gene (hERG) potassium channel (human, UniProt Q12809). Kind of assay: primary screen, population patch clamp on CHO cells stably expressing hERG.
With `O=C(Nc1cccnc1)c1ccc(Cl)c(S(=O)(=O)N2CCCCCC2)c1`, the “hERG current change (%, negative = inhibition) at 1uM” value worked out at 6.4%.

For the compound `COc1cc(C(=O)NCC2CCCO2)cc(OC)c1OC` (centres unmarked), the “hERG current change (%, negative = inhibition) at 1uM” value was determined as 15%.

With `NC(=O)CN(C/C=C/c1ccccc1)C/C=C/c1ccccc1`, the “hERG current change (%, negative = inhibition) at 1uM” value worked out at 23.3%.

For the compound `O=C(Nc1csc(Cl)c1)c1ccccc1`, the “hERG current change (%, negative = inhibition) at 1uM” value stood at 4.52%.

`COc1cc(C(=O)Sc2ccc(Cl)cc2)cc(OC)c1OC`: the “hERG current change (%, negative = inhibition) at 1uM” value is given as 14%.

For the compound `COc1ccc(-c2ccnc(-c3ccc(O)cc3)n2)cc1`, the “hERG current change (%, negative = inhibition) at 1uM” value is recorded as 8.12%.

For the compound `N#CC1CC(c2ccc([N+](=O)[O-])cc2)=NN1c1ccc([N+](=O)[O-])cc1` (centres unmarked), the “hERG current change (%, negative = inhibition) at 1uM” value is given as 5.01%.

Turning to `COC(=O)Oc1ccc(/C=C/C(=O)OC(C)C)cc1OC(=O)OC`, the “hERG current change (%, negative = inhibition) at 1uM” value came to 6.62%.

Turning to `Cc1cccc(-n2nc3c([n+]2[O-])CCc2nonc2-3)c1C`, the “hERG current change (%, negative = inhibition) at 1uM” value turned out to be 13.8%.

For the compound `CNC(=S)SCCOc1ccc(C)cc1`, the “hERG current change (%, negative = inhibition) at 1uM” value stood at 16%.

For `CN(CC(CC(=O)Nc1nncs1)c1ccccc1)S(=O)(=O)c1ccc(Br)cc1` (centres unmarked), the “hERG current change (%, negative = inhibition) at 1uM” value is listed as -32.6%.

For the compound `CC(OC(=O)COc1ccccc1Cc1ccccc1)C(=O)N(C)c1ccccc1` (centres unmarked), the “hERG current change (%, negative = inhibition) at 1uM” value is listed as 8.06%.

Regarding `Fc1ccc(CNC2CCN(Cc3ccccc3)CC2)cc1`, the “hERG current change (%, negative = inhibition) at 1uM” value is -9.44%.

For `CCCC(=O)N(Cc1cc2cc(C)ccc2[nH]c1=O)c1ccccc1OC`, the “hERG current change (%, negative = inhibition) at 1uM” value stood at 6.79%.

Turning to `CCN(CC)c1ccc(C2C3CCCCC3(O)CCN2C(=O)c2cccs2)cc1` (centres unmarked), the “hERG current change (%, negative = inhibition) at 1uM” value is listed as 6.98%.

For the compound `Cc1nnsc1SCCNC(=O)c1ccc(F)cc1`, the “hERG current change (%, negative = inhibition) at 1uM” value worked out at 7.97%.

Consider `O=C(Nc1ccc(Cl)cn1)c1ccc(COCC(F)(F)C(F)F)o1`, for which the “hERG current change (%, negative = inhibition) at 1uM” value was -7.64%.

For the compound `CC(=O)Nc1ccnn1C1CCN(C(=O)c2cccc(C)c2C)CC1`, the “hERG current change (%, negative = inhibition) at 1uM” value worked out at 14.1%.

As for `Cc1ccc(C(=O)CC(=O)c2cccc(F)c2)c(O)c1`, the “hERG current change (%, negative = inhibition) at 1uM” value turned out to be 1.53%.

`COc1cc(S(=O)(=O)N2CCCC2)c(C)cc1C`: the “hERG current change (%, negative = inhibition) at 1uM” value is reported as 16.5%.

`O=S(=O)(c1ccc(Br)s1)N1CCN(Cc2ccc3c(c2)OCO3)CC1`: the “hERG current change (%, negative = inhibition) at 1uM” value is given as 14.6%.

In the case of `COC(=O)c1sc2nc(C)c([N+](=O)[O-])c(C)c2c1N`, the “hERG current change (%, negative = inhibition) at 1uM” value came to 6.8%.

In the case of `CN(C(=O)c1ccc(Br)cc1)C1CCS(=O)(=O)C1` (centres unmarked), the “hERG current change (%, negative = inhibition) at 1uM” value was 10.2%.

`COc1ccccc1NC(=O)c1cc2c(CO)cnc(C)c2oc1=Nc1ccc(OC)c(OC)c1`: the “hERG current change (%, negative = inhibition) at 1uM” value came to 10.7%.

For the compound `CCN1CCN(c2ccccc2NC(=O)C(C)Oc2ccc(C(C)=O)cc2)CC1` (centres unmarked), the “hERG current change (%, negative = inhibition) at 1uM” value is recorded as -17.5%.

For the compound `COC(=O)COc1coc(CN2CCN(c3cccc(Cl)c3)CC2)cc1=O`, the “hERG current change (%, negative = inhibition) at 1uM” value is given as 9.34%.

As to `Br.COCC(C)NCc1cccc(C)c1` (centres unmarked), the “hERG current change (%, negative = inhibition) at 1uM” value was determined as 14.9%.

With `CCOc1ccc(-c2nnc3n2N=C(c2ccc(OC)cc2)CS3)cc1`, the “hERG current change (%, negative = inhibition) at 1uM” value was found to be 10.8%.

Take `c1ccc(-c2cn(C[C@H]3CC[C@@H]([C@@H]4CC[C@H](Cn5cc(-c6ccccc6)nn5)O4)O3)nn2)cc1`: the “hERG current change (%, negative = inhibition) at 1uM” value was -3.6%.

`COc1ccc(OC)c(NC(=O)C(=O)NNC(=O)C23CC4CC(CC(C4)C2)C3)c1`: the “hERG current change (%, negative = inhibition) at 1uM” value is 13.5%.

`COc1cc(NC(=O)c2cccc(Cl)c2)ccc1NC(=O)c1cccs1`: the “hERG current change (%, negative = inhibition) at 1uM” value is reported as 5.97%.

As for `CCCCN(C)CCCNC(=O)C1(O)c2ccccc2NC(=O)N1c1ccc(Cl)cc1` (centres unmarked), the “hERG current change (%, negative = inhibition) at 1uM” value was 19.4%.

As for `CC(=O)Oc1ccc(C(=O)Cc2ccccn2)c(O)c1`, the “hERG current change (%, negative = inhibition) at 1uM” value is on record as 7.84%.

Take `Cc1ccc(NC(=O)CSc2nnc(NC(=O)c3ccco3)s2)cc1`: the “hERG current change (%, negative = inhibition) at 1uM” value is recorded as -1.18%.

Take `Cc1ccc(CONS(=O)(=O)c2cc(C)ccc2C)cc1`: the “hERG current change (%, negative = inhibition) at 1uM” value turned out to be 13.7%.

Turning to `O=C(CN1C2CCC1CC(O)(c1cccnc1)C2)Nc1ccc2c(c1)OCO2` (centres unmarked), the “hERG current change (%, negative = inhibition) at 1uM” value was -19.9%.

In the case of `CC1CCCC(NC(=O)COC(=O)c2cc(S(=O)(=O)N3CCCCC3)ccc2N2CCOCC2)C1C` (centres unmarked), the “hERG current change (%, negative = inhibition) at 1uM” value is listed as -7.1%.

With `CN(C)Cc1ccccc1C1(O)c2ccccc2CSc2ccccc21.Cl` (centres unmarked), the “hERG current change (%, negative = inhibition) at 1uM” value worked out at 6.62%.

Consider `COc1ccc(Cl)cc1NC(=O)CCN1C(=O)C2C3CCC(C3)C2C1=O` (centres unmarked), for which the “hERG current change (%, negative = inhibition) at 1uM” value is 6.94%.

As to `O=C(CCCN1C(=O)C2CCCCN2C1=O)N1CCN(c2ccc([N+](=O)[O-])cc2)CC1` (centres unmarked), the “hERG current change (%, negative = inhibition) at 1uM” value is given as -78.5%.

In the case of `COC(c1ccccc1)c1nnc(CCC(=O)NCCc2ccc(Cl)cc2)o1` (centres unmarked), the “hERG current change (%, negative = inhibition) at 1uM” value stood at 12.2%.

With `O=C1CN(O)C(c2ccccc2Cl)=c2cc(Br)ccc2=N1`, the “hERG current change (%, negative = inhibition) at 1uM” value came out at 11.4%.

For `Cc1ccc(C2CCN(C(=S)Nc3cccc(C)c3)C2)cc1` (centres unmarked), the “hERG current change (%, negative = inhibition) at 1uM” value was found to be 2.01%.

As for `CCN(c1ccccc1)S(=O)(=O)c1cccc(C(=O)NCc2ccccn2)c1`, the “hERG current change (%, negative = inhibition) at 1uM” value is 12.8%.

For the compound `O=C(Cc1nnc(NC(=O)c2ccccc2)s1)N/N=C/c1ccco1`, the “hERG current change (%, negative = inhibition) at 1uM” value was 12.9%.

With `CCN(CC)S(=O)(=O)c1ccc2[nH]cc(C(=O)NCCc3ccccc3)c(=O)c2c1`, the “hERG current change (%, negative = inhibition) at 1uM” value was found to be 2.57%.

Regarding `CC(=O)Nc1ccccc1Oc1ccccc1`, the “hERG current change (%, negative = inhibition) at 1uM” value is 9.6%.

Turning to `Cc1ccc(C(=O)NC(NCC2CCCO2)C(Cl)(Cl)Cl)cc1` (centres unmarked), the “hERG current change (%, negative = inhibition) at 1uM” value amounted to 9.95%.

Regarding `O=C(c1ccc(CNS(=O)(=O)c2cccc(Cl)c2)cc1)N1CCCCC1`, the “hERG current change (%, negative = inhibition) at 1uM” value was determined as 13.9%.

Regarding `CCN(CC)c1ccc(SS(=O)(=O)O)cc1`, the “hERG current change (%, negative = inhibition) at 1uM” value is 5.26%.

Regarding `Cc1ccc(Cl)cc1NC(=O)CN1CCOCC1`, the “hERG current change (%, negative = inhibition) at 1uM” value turned out to be 12.2%.

With `Cc1cc(C)n2nc(C(=O)N/N=C/c3ccccc3C)nc2n1`, the “hERG current change (%, negative = inhibition) at 1uM” value came out at 8.83%.

Regarding `CCOC(=O)C1(Cc2ccc(Cl)cc2)CCN(Cc2nccn2CC)CC1`, the “hERG current change (%, negative = inhibition) at 1uM” value was -57%.

Regarding `CNc1nc(SC)n(C)c(=O)c1N=O`, the “hERG current change (%, negative = inhibition) at 1uM” value is 7.17%.

`CCOC(=O)c1ccc(S(=O)(=O)N2CCN(C)CC2)cc1`: the “hERG current change (%, negative = inhibition) at 1uM” value stood at 13.8%.

With `Cc1ccnc(NS(=O)(=O)c2ccc(N)cc2)n1`, the “hERG current change (%, negative = inhibition) at 1uM” value stood at 9.42%.

For `CCCn1c2ccccc2c2cnn(CC(=O)OC)c(=O)c21`, the “hERG current change (%, negative = inhibition) at 1uM” value was found to be 11.8%.

With `COC(=O)c1cc(Cl)c(NC(=O)/C=C/c2ccc(OC)c(OC)c2)cc1OC`, the “hERG current change (%, negative = inhibition) at 1uM” value is -8.21%.

With `COc1ccccc1N1CCN(c2ccc(-c3ccccc3)nn2)CC1`, the “hERG current change (%, negative = inhibition) at 1uM” value came out at 5.15%.

The values are drawn from publication PMC4336329 (PLoS ONE, 2015).
